According to article PMC4336329 (PLoS ONE, 2015):
About 14,000 (4.5%) of roughly 310,000 compounds showed an effect of 50% or more. The effect is printed as a negative number. The list shows a part of the results.

What follows are compounds tested against human ether-à-go-go-related gene (hERG) potassium channel (human, UniProt Q12809) (assay: primary screen, population patch clamp on CHO cells stably expressing hERG).
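Note: peak tail current of the secondary pulse compared with the same well before compound.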

human ether-à-go-go-related gene (hERG) potassium channel, sequence (Q12809 whole entry, looked up): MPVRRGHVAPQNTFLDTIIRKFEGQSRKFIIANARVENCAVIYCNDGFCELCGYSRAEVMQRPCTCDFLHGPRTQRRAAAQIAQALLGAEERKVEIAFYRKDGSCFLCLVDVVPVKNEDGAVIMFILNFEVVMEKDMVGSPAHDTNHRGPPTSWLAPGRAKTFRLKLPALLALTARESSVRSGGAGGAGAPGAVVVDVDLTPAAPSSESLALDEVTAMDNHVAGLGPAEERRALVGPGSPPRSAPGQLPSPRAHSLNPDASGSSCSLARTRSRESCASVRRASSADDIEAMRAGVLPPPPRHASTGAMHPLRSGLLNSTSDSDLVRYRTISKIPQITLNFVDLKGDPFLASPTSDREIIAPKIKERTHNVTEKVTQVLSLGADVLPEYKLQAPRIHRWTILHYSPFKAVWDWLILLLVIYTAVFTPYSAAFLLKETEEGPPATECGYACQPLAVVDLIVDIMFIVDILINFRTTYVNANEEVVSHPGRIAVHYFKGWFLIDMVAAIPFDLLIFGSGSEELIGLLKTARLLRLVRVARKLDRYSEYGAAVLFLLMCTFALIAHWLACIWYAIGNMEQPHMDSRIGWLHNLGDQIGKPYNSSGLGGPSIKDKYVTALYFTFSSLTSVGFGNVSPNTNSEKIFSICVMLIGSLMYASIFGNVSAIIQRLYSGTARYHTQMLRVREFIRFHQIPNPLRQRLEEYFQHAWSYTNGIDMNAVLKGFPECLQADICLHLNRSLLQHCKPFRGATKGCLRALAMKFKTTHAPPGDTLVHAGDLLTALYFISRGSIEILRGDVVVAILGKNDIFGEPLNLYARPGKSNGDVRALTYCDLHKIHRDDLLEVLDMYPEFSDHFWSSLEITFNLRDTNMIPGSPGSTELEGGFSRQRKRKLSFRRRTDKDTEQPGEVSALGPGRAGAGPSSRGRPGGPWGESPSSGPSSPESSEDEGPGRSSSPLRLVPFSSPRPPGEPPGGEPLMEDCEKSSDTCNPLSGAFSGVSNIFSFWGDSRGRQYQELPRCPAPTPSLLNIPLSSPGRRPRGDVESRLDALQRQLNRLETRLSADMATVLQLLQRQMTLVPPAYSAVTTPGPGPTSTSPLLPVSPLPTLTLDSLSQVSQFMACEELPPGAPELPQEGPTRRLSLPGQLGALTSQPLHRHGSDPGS

| SMILES | hERG current change (%, negative = inhibition) at 10uM [%] |
| --- | --- |
| COCCNC(=O)CSc1ccc(C)cc1 | 3.31 |
| CCn1c(O)c(N=NC(=O)CNC(=O)Cc2ccccc2)c2ccccc21 | -12.4 |
| CC(C)(C)C(=O)NCCc1nc2ccccc2n1CC(=O)c1ccccc1 | -2.84 |
| Cc1nn(Cc2ccccc2)c(C)c1C(=O)NCCCN1CCCC1=O | -6.35 |
| O=C(CNC(=O)c1ccc2c(c1)OCCO2)N/N=C/c1ccc(Cl)cc1 | 14.1 |
| CCOc1cc(Br)cc(/C=C2\SC(=Nc3ccccc3)NC2=O)c1O | 25.8 |
| COc1ccc(CNC(C)C2COc3ccccc3O2)c(OC)c1.O=C(O)C(=O)O (centres unmarked) | -63.2 |
| O=C(/C=C/c1ccc(F)cc1)NC(=S)NNC(=O)[C@H]1C[C@@H]1c1ccccc1 | 4.72 |
| COc1ccc(N2C(=O)CC(N3CCC(C(N)=O)CC3)C2=O)cc1 (centres unmarked) | 10.1 |
| CCOc1ccc(NC(=O)CSc2nc3c(c(=O)n2C)SC(C)C3)cc1 (centres unmarked) | 1.95 |
| CCN1CCN(c2oc(COc3ccc(-c4ccccc4)cc3)nc2C#N)CC1 | -55.8 |
| O=C(COc1ccc(Cl)cc1)NNC(=O)C(=O)N1CCCCC1 | -11.6 |
| O=C(CCn1c(=O)c2cccn2c2ccc(F)cc21)NCc1cccc(F)c1 | 23.4 |
| COc1cc(NC(=O)c2ccccc2)c(OC)cc1NC(=O)CN1C(=O)NC2(CCCCC2C)C1=O (centres unmarked) | -49.8 |
| Cc1ccc(CSCc2ccc(C(=O)NC3CCCC3)o2)cc1 | -18.2 |
| CCC(=NCCc1ccccc1)c1c(O)n(C2CCCCC2)c(=O)[nH]c1=O | -5.35 |
| CC(=O)NC(C)C12CC3CC(CC(C(=O)O)(C3)C1)C2 (centres unmarked) | 16.3 |
| CCOC(=O)N1CCN(C(=O)c2ccc(CNS(=O)(=O)c3ccc(C)cc3)cc2)CC1 | -22.8 |
| NC(=O)c1ccccc1[N+](=O)[O-] | 12.9 |
| COc1ccc(Nc2cc(C(=O)NCc3ccccn3)c3ccccc3n2)c(OC)c1 | 8.79 |
| O=C(Cc1ccc(F)cc1)Nc1ccc(S(=O)(=O)N2CCCCC2)cc1 | -4.48 |
| CCC(CC)C(=O)Nc1cccc(C(=O)NC(C)(C)C)c1 | 19.2 |

| SMILES | hERG current change (%, negative = inhibition) at 10uM [%] |
| --- | --- |
| O=C(COC(=O)c1cc(S(=O)(=O)N2CCCCC2)ccc1N1CCOCC1)NCCc1ccc(F)cc1 | -25.5 |
| Cn1ncc(Br)c1NC(=O)c1cc(Cl)cc(Cl)c1 | -11.4 |
| O=C(NCCC1=CCCCC1)c1ccc2c(=O)n3c(nc2c1)CCCCC3 | -42.1 |
| CCOC(=O)c1cc2n(c1N)-c1ccccc1C2=O | -8.4 |
| O=C(NC(=S)Nc1ccccc1N1CCCC1)c1ccccc1Br | 11.6 |
| O=[N+]([O-])c1cc(-c2ccc(/C=N\n3cnnc3)o2)cc([N+](=O)[O-])c1 | -21.5 |
| C/C=C/C(=O)Nc1nnc(-c2ccccc2C)s1 | -2.39 |
| CS(=O)(=O)N1CCC(Oc2cccc(C(=O)NCCCOc3cccnc3)c2)CC1 | 13.2 |
| O=C(COC(=O)/C(=C/c1cccs1)c1cccs1)NCc1ccccc1Cl | 2.4 |
| CCOc1ccc(NC(=O)CSc2nnc(-c3ccncc3)n2CC2CCCO2)cc1 (centres unmarked) | -10.6 |
| COc1cccc(NC(=O)Cc2cn(C)c3ccccc23)c1 | -6.13 |
| Cc1c(C)c2ccc(OCC(=O)N[C@@H](Cc3ccccc3)C(=O)O)cc2oc1=O | 18.3 |
| CCCc1ccc(-c2c(C)sc(NC(=O)c3ccnn3C)c2C#N)cc1 | 11.5 |
| Cc1cc(Oc2ccc(=O)n(C)n2)nc(=S)[nH]1 | 17.4 |
| CCCn1cc(SCC(=O)NC2CCCC2)c2ccccc21 | -6.96 |
| Cl.O=C(CSC1=NCCN1)Nc1cccc(C(F)(F)F)c1 | -28.5 |
| O=C(Cn1cnc2ccccc21)Nc1cccc([N+](=O)[O-])c1 | 12.5 |
| O=c1[nH]c(-c2ccccc2)c(-c2ccccc2)nc1[N+](=O)[O-] | 13.4 |
| NC(=O)Cc1cn(-c2ncc(C(F)(F)F)cc2Cl)c2ccccc12 | -24.7 |
| COC(=O)c1cc(NC(=S)Nc2cc(Cl)cc(Cl)c2)cc(C(=O)OC)c1 | -0.0139 |
| Cc1ccc(NC(=S)NCCCN2CCOCC2)cc1C | 3.72 |
| CC(=O)NC1(c2ccccc2)CCN(c2cc(C)nc(-c3ccccc3)n2)CC1 | -38.4 |
